# Measurements: the supplement of paper PMC8728848
# This is one part of the list.
# B1: EULS2 M2 (Oryza sativa) (protein)
# chain: MVYCRANPNYAMTARNGAVVLAPANPKDEYQHWIKDMRWSTSIKDEEGYPAFALVNKATGQAIKHSLGQSHPVRLVPYNPEVMDESVLWTESRDVGNGFRCIRMVNNIYLNFDAFHGDKYHGGVRDGTDIVLWKLCEGDSQRWKIQPYYILEQKLISEEDLNSAVDHHHHHH
# Experiments:
# Test in all cases: glycan array binding signal (z-score within array); higher = stronger binding
# Conditions in all cases: glycan notation: IUPAC condensed, linker removed
# [1] = biological target: Neu5Ac(a2-6)Gal(b1-4)GlcNAc(b1-2)Man(a1-3)[Man(a1-6)]Man(b1-4)GlcNAc(b1-4)GlcNAc
# Method in brief: (§1)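 The binding signal is a Z-score computed within each array and averaged over linkers. Arrays of the same protein sequence at different concentrations or buffers were also averaged together. Data originate from 3228 arrays in the Consortium for Functional Glycomics database, kept only where the protein sequence was available.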
# [2] = biological target: Neu5Ac(a2-6)Gal(b1-4)GlcNAc(b1-2)Man(a1-3)[Neu5Ac(a2-3)Gal(b1-4)GlcNAc(b1-2)Man(a1-6)]Man(b1-4)GlcNAc(b1-4)GlcNAc
# Method in brief: as §1
# [3] = biological target: Neu5Ac(a2-6)Gal(b1-4)GlcNAc(b1-2)Man(a1-3)[Neu5Ac(a2-6)Gal(b1-4)GlcNAc(b1-2)Man(a1-6)]Man(b1-4)GlcNAc(b1-4)GlcNAc
# Method in brief: as §1
# [4] = biological target: Neu5Ac(a2-6)Gal(b1-4)GlcNAc(b1-2)Man(a1-3)[Neu5Ac(a2-6)Gal(b1-4)GlcNAc(b1-2)Man(a1-6)]Man(b1-4)GlcNAc(b1-4)[Fuc(a1-6)]GlcNAc
# Method in brief: as §1
# [5] = biological target: Neu5Ac(a2-6)Gal(b1-4)GlcNAc(b1-2)Man(a1-6)Man(b1-4)GlcNAc(b1-4)GlcNAc
# Method in brief: as §1
# [6] = biological target: Neu5Ac(a2-6)Gal(b1-4)GlcNAc(b1-2)Man(a1-6)[Gal(b1-4)GlcNAc(b1-2)Man(a1-3)]Man(b1-4)GlcNAc(b1-4)GlcNAc
# Method in brief: as §1
# [7] = biological target: Neu5Ac(a2-6)Gal(b1-4)GlcNAc(b1-2)Man(a1-6)[GlcNAc(b1-2)Man(a1-3)]Man(b1-4)GlcNAc(b1-4)GlcNAc
# Method in brief: as §1
# [8] = biological target: Neu5Ac(a2-6)Gal(b1-4)GlcNAc(b1-2)Man(a1-6)[Man(a1-3)]Man(b1-4)GlcNAc(b1-4)GlcNAc
# Method in brief: as §1
# [9] = biological target: Neu5Ac(a2-6)Gal(b1-4)GlcNAc(b1-2)[Neu5Ac(a2-6)Gal(b1-4)GlcNAc(b1-4)]Man(a1-3)[GlcNAc(b1-4)][Neu5Ac(a2-6)Gal(b1-4)GlcNAc(b1-2)[Neu5Ac(a2-6)Gal(b1-4)GlcNAc(b1-6)]Man(a1-6)]Man(b1-4)GlcNAc(b1-4)GlcNAc
# Method in brief: as §1
# [10] = biological target: Neu5Ac(a2-6)Gal(b1-4)GlcNAc(b1-2)[Neu5Ac(a2-6)Gal(b1-4)GlcNAc(b1-4)]Man(a1-3)[GlcNAc(b1-4)][Neu5Ac(a2-6)Gal(b1-4)GlcNAc(b1-4)Man(a1-6)]Man(b1-4)GlcNAc(b1-4)GlcNAc
# Method in brief: as §1
# [11] = biological target: Neu5Ac(a2-6)Gal(b1-4)GlcNAc(b1-2)[Neu5Ac(a2-6)Gal(b1-4)GlcNAc(b1-6)]Man(a1-6)[Neu5Ac(a2-6)Gal(b1-4)GlcNAc(b1-2)Man(a1-3)][GlcNAc(b1-4)]Man(b1-4)GlcNAc(b1-4)GlcNAc
# Method in brief: as §1
# [12] = biological target: Neu5Ac(a2-6)Gal(b1-4)GlcNAc(b1-3)Gal(b1-3)GlcNAc
# Method in brief: as §1
# [13] = biological target: Neu5Ac(a2-6)Gal(b1-4)GlcNAc(b1-3)Gal(b1-4)GlcNAc
# Method in brief: as §1
# [14] = biological target: Neu5Ac(a2-6)Gal(b1-4)GlcNAc(b1-3)Gal(b1-4)GlcNAc(b1-2)Man(a1-3)[Neu5Ac(a2-6)Gal(b1-4)GlcNAc(b1-3)Gal(b1-4)GlcNAc(b1-2)Man(a1-6)]GalNAc
# Method in brief: as §1
# [15] = biological target: Neu5Ac(a2-6)Gal(b1-4)GlcNAc(b1-3)Gal(b1-4)GlcNAc(b1-3)Gal(b1-4)GlcNAc
# Method in brief: as §1
# [16] = biological target: Neu5Ac(a2-6)Gal(b1-4)GlcNAc(b1-3)Gal(b1-4)GlcNAc(b1-3)Gal(b1-4)GlcNAc(b1-2)Man(a1-3)[Neu5Ac(a2-6)Gal(b1-4)GlcNAc(b1-3)Gal(b1-4)GlcNAc(b1-3)Gal(b1-4)GlcNAc(b1-2)Man(a1-6)]GalNAc
# Method in brief: as §1
# [17] = biological target: Neu5Ac(a2-6)Gal(b1-4)GlcNAc(b1-3)Gal(b1-4)GlcNAc(b1-3)GalNAc
# Method in brief: as §1
# [18] = biological target: Neu5Ac(a2-6)Gal(b1-4)GlcNAc(b1-3)Gal(b1-4)GlcNAc(b1-3)[Neu5Ac(a2-6)Gal(b1-4)GlcNAc(b1-3)Gal(b1-4)GlcNAc(b1-6)]GalNAc
# Method in brief: as §1
# [19] = biological target: Neu5Ac(a2-6)Gal(b1-4)GlcNAc(b1-3)Gal(b1-4)GlcNAc(b1-6)[Gal(b1-3)]GalNAc
# Method in brief: as §1
# [20] = biological target: Neu5Ac(a2-6)Gal(b1-4)GlcNAc(b1-3)Gal(b1-4)[Fuc(a1-3)]GlcNAc(b1-3)Gal(b1-4)[Fuc(a1-3)]GlcNAc
# Method in brief: as §1
# [21] = biological target: Neu5Ac(a2-6)Gal(b1-4)GlcNAc(b1-3)GalNAc
# Method in brief: as §1
# [22] = biological target: Neu5Ac(a2-6)Gal(b1-4)GlcNAc(b1-3)[Neu5Ac(a2-6)Gal(b1-4)GlcNAc(b1-6)]GalNAc
# Method in brief: as §1
# [23] = biological target: Neu5Ac(a2-6)Gal(b1-4)GlcNAc(b1-6)GalNAc
# Method in brief: as §1
# [24] = biological target: Neu5Ac(a2-6)Gal(b1-4)GlcNAc(b1-6)[Gal(b1-3)GlcNAc(b1-3)]Gal(b1-4)Glc
# Method in brief: as §1
# [25] = biological target: Neu5Ac(a2-6)Gal(b1-4)GlcNAc(b1-6)[Gal(b1-3)]GalNAc
# Method in brief: as §1
# [26] = biological target: Neu5Ac(a2-6)Gal(b1-4)GlcNAc6S
# Method in brief: as §1
# [27] = biological target: Neu5Ac(a2-6)GalNAc
# Method in brief: as §1
# [28] = biological target: Neu5Ac(a2-6)GalNAc(b1-4)GlcNAc
# Method in brief: as §1
# [29] = biological target: Neu5Ac(a2-6)GalNAc(b1-4)GlcNAc6S
# Method in brief: as §1
# [30] = biological target: Neu5Ac(a2-6)GlcNAc(b1-4)GlcNAc
# Method in brief: as §1
# [31] = biological target: Neu5Ac(a2-6)GlcNAc(b1-4)GlcNAc(b1-4)GlcNAc
# Method in brief: as §1
binder,measurement,setting,value
B1,glycan array binding signal (z-score),[1],1.57
same,glycan array binding signal (z-score),[2],-0.231
same,glycan array binding signal (z-score),[3],0.002
same,glycan array binding signal (z-score),[4],-0.091
same,glycan array binding signal (z-score),[5],-0.423
same,glycan array binding signal (z-score),[6],-0.702
same,glycan array binding signal (z-score),[7],0.472
same,glycan array binding signal (z-score),[8],0.405
same,glycan array binding signal (z-score),[9],0.292
same,glycan array binding signal (z-score),[10],-0.758
same,glycan array binding signal (z-score),[11],-0.066
same,glycan array binding signal (z-score),[12],-0.207
same,glycan array binding signal (z-score),[13],-0.214
same,glycan array binding signal (z-score),[14],-0.24
same,glycan array binding signal (z-score),[15],-0.404
same,glycan array binding signal (z-score),[16],0.058
same,glycan array binding signal (z-score),[17],-0.499
same,glycan array binding signal (z-score),[18],-0.159
same,glycan array binding signal (z-score),[19],-0.768
same,glycan array binding signal (z-score),[20],-0.268
same,glycan array binding signal (z-score),[21],-0.138
same,glycan array binding signal (z-score),[22],-0.912
same,glycan array binding signal (z-score),[23],0.33
same,glycan array binding signal (z-score),[24],0.297
same,glycan array binding signal (z-score),[25],0.479
same,glycan array binding signal (z-score),[26],-0.389
same,glycan array binding signal (z-score),[27],-0.587
same,glycan array binding signal (z-score),[28],-0.44
same,glycan array binding signal (z-score),[29],-0.373
same,glycan array binding signal (z-score),[30],0.093
same,glycan array binding signal (z-score),[31],-0.697
